This is one part of the list. The full chains were built here from the parent and the listed change. Inactive controls read about 0.05.
B1: TEV protease; numbered along this chain (parent)
chain: MGESLFKGPRDYNPISSSICHLTNESDGHTTSLYGIGFGPFIITNKHLFRRNNGTLVVQSLHGVFKVKDTTTLQQHLVDGRDMIIIRMPKDFPPFPQKLKFREPQREERICLVTTNFQTKSMSSMVSDTSCTFPSGDGIFWKHWIQTKDGQCGSPLVSTRDGFIVGIHSASNFTNTNNYFTSVPKNFMELLTNQEAQQWVSGWRLNADSVLWGGHKVFMVKPEEPFQPVKEATQL

Variants of: B1
Experiment: raw area under fraction-flipped curve 0-4 h after induction (AUC4h, not background-subtracted), DNA-recorder readout of cleavage of the substrate (dimensionless); higher = more cleavage of the substrate by the protease variant
Conditions: temperature: 34 °C; time window: 0-4 h after rhamnose induction
Protocol: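 In vivo DNA recorder in E. coli TOP10(DE3) ΔrhaA at 34 °C. Each TEVp single-site mutant (parent TEVp 0) is paired with a single-site variant of the 7-mer TEVs (canonical ENLYFQ|S). The substrate sits between flexible linkers in a Bxb1-sfGFP-TEVs-SsrA fusion, so cleavage stabilises Bxb1 and speeds flipping of a recombination array, read by NGS. The value is the raw area under the fraction-flipped curve over 0-4 h after rhamnose induction (AUC4h), with ≥20 reads per time point. It is not background-subtracted; inactive controls average about 0.047.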
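Also: Bxb1 expression induced with 0.2% (w/v) L-rhamnose at OD600 near 0.5, cultures sampled hourly, flipped fraction per protease–substrate barcode pair counted by paired-end Illumina sequencing.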

What does the source list for P222H?
area with substrate EALYFQS: 0.096; area with substrate ECLYFQS: 0.0737; area with substrate EDLYFQS: 0.128; area with substrate EELYFQS: 0.12; area with substrate EFLYFQS: 0.0946; area with substrate EGLYFQS: 0.0538; area with substrate EILYFQS: 0.0963; area with substrate EKLYFQS: 0.0884; area with substrate EMLYFQS: 0.0893; area with substrate ERLYFQS: 0.0698; area with substrate ESLYFQS: 0.0978; area with substrate EWLYFQS: 0.0965

What does the source list for S16R?
area with substrate EALYFQS: 0.144; area with substrate ECLYFQS: 0.116; area with substrate EDLYFQS: 0.141; area with substrate EGLYFQS: 0.103; area with substrate EHLYFQS: 0.123; area with substrate EILYFQS: 0.0976; area with substrate EKLYFQS: 0.128; area with substrate ELLYFQS: 0.0919; area with substrate EPLYFQS: 0.113; area with substrate EQLYFQS: 0.136; area with substrate ERLYFQS: 0.112; area with substrate ESLYFQS: 0.116; area with substrate ETLYFQS: 0.117; area with substrate EVLYFQS: 0.0722; area with substrate EWLYFQS: 0.0982

Which “area with substrate EALYFQS” value does the source give for S16M here?
Its value is 0.109.

What about the “area with substrate ECLYFQS” value of the same variant?
Its value is 0.102.

And the “area with substrate EDLYFQS” value?
The value was 0.114.

What about the “area with substrate EELYFQS” value of the same variant?
Its value is 0.143.

And the “area with substrate EHLYFQS” value?
The value was 0.11.

And the “area with substrate EILYFQS” value?
The value was 0.0918.

And the “area with substrate EKLYFQS” value?
The value was 0.131.

What about the “area with substrate ELLYFQS” value of the same variant?
Its value is 0.0777.

What about the “area with substrate EMLYFQS” value of the same variant?
The value was 0.136.

And the “area with substrate EPLYFQS” value?
Its value is 0.107.

What about the “area with substrate EQLYFQS” value of the same variant?
The value was 0.136.

And the “area with substrate ESLYFQS” value?
Its value is 0.114.

And the “area with substrate ETLYFQS” value?
Its value is 0.0966.

What about the “area with substrate EVLYFQS” value of the same variant?
Its value is 0.111.

What about the “area with substrate EWLYFQS” value of the same variant?
The value was 0.0851.

What about the “area with substrate EYLYFQS” value of the same variant?
The value was 0.108.

What does the source list for S16Y?
area with substrate EALYFQS: 0.12; area with substrate ECLYFQS: 0.107; area with substrate EELYFQS: 0.107; area with substrate EGLYFQS: 0.0988; area with substrate EHLYFQS: 0.134; area with substrate EILYFQS: 0.0763; area with substrate EKLYFQS: 0.0902; area with substrate ELLYFQS: 0.071; area with substrate EQLYFQS: 0.12; area with substrate ERLYFQS: 0.133; area with substrate ESLYFQS: 0.0869; area with substrate EYLYFQS: 0.127

With P14I as the variant, how does the “area with substrate EALYFQS” value read?
Its value is 0.213.

What about the “area with substrate ECLYFQS” value of the same variant?
Its value is 0.107.

And the “area with substrate EDLYFQS” value?
Its value is 0.107.

And the “area with substrate EELYFQS” value?
The value was 0.0919.

What about the “area with substrate EFLYFQS” value of the same variant?
Its value is 0.1.

And the “area with substrate EGLYFQS” value?
The value was 0.0864.

And the “area with substrate EHLYFQS” value?
The value was 0.0903.

And the “area with substrate EILYFQS” value?
Its value is 0.0855.

And the “area with substrate EKLYFQS” value?
The value was 0.089.

And the “area with substrate EMLYFQS” value?
Its value is 0.0867.

What about the “area with substrate EQLYFQS” value of the same variant?
The value was 0.0916.

And the “area with substrate ERLYFQS” value?
Its value is 0.111.

What about the “area with substrate ESLYFQS” value of the same variant?
The value was 0.0929.

And the “area with substrate EVLYFQS” value?
Its value is 0.082.

And the “area with substrate EWLYFQS” value?
The value was 0.0736.

What about the “area with substrate EYLYFQS” value of the same variant?
The value was 0.125.

What does the source list for R106D?
area with substrate EALYFQS: 0.12; area with substrate ECLYFQS: 0.112; area with substrate EDLYFQS: 0.11; area with substrate EELYFQS: 0.099; area with substrate EFLYFQS: 0.1; area with substrate EGLYFQS: 0.0865; area with substrate EHLYFQS: 0.109; area with substrate EILYFQS: 0.105; area with substrate EKLYFQS: 0.116; area with substrate ELLYFQS: 0.102; area with substrate EMLYFQS: 0.107; area with substrate EQLYFQS: 0.088; area with substrate ERLYFQS: 0.111; area with substrate ESLYFQS: 0.101; area with substrate ETLYFQS: 0.128; area with substrate EVLYFQS: 0.0939; area with substrate EWLYFQS: 0.0935

For N24T, which “area with substrate EALYFQS” value is on record?
The value was 0.0807.

What about the “area with substrate ECLYFQS” value of the same variant?
Its value is 0.0764.

What about the “area with substrate EDLYFQS” value of the same variant?
The value was 0.0912.

What about the “area with substrate EGLYFQS” value of the same variant?
Its value is 0.0688.

What about the “area with substrate EHLYFQS” value of the same variant?
The value was 0.0579.

And the “area with substrate EILYFQS” value?
The value was 0.071.

And the “area with substrate ELLYFQS” value?
The value was 0.0666.

And the “area with substrate EMLYFQS” value?
Its value is 0.0737.

What about the “area with substrate EPLYFQS” value of the same variant?
Its value is 0.0836.

And the “area with substrate EQLYFQS” value?
Its value is 0.0816.

What about the “area with substrate ERLYFQS” value of the same variant?
Its value is 0.0547.

And the “area with substrate ESLYFQS” value?
Its value is 0.0771.

And the “area with substrate ETLYFQS” value?
Its value is 0.0805.

And the “area with substrate EWLYFQS” value?
Its value is 0.0734.

For P184L, which “area with substrate EALYFQS” value is on record?
The value was 0.0394.

And the “area with substrate ECLYFQS” value?
Its value is 0.0805.

And the “area with substrate EDLYFQS” value?
Its value is 0.073.

What about the “area with substrate EELYFQS” value of the same variant?
Its value is 0.0642.

And the “area with substrate EILYFQS” value?
The value was 0.0536.

What about the “area with substrate EKLYFQS” value of the same variant?
Its value is 0.0639.

And the “area with substrate EMLYFQS” value?
The value was 0.058.

What about the “area with substrate EQLYFQS” value of the same variant?
Its value is 0.0668.

What about the “area with substrate ESLYFQS” value of the same variant?
Its value is 0.0723.

What about the “area with substrate EVLYFQS” value of the same variant?
Its value is 0.0735.

For C152G, which “area with substrate EALYFQS” value is on record?
The value was 0.0592.

What about the “area with substrate ECLYFQS” value of the same variant?
The value was 0.036.

And the “area with substrate EDLYFQS” value?
Its value is 0.0573.

And the “area with substrate EELYFQS” value?
Its value is 0.0627.

What about the “area with substrate EFLYFQS” value of the same variant?
Its value is 0.0509.

And the “area with substrate EGLYFQS” value?
The value was 0.0543.

And the “area with substrate EHLYFQS” value?
The value was 0.0678.

What about the “area with substrate EKLYFQS” value of the same variant?
The value was 0.0536.

What about the “area with substrate ELLYFQS” value of the same variant?
Its value is 0.0608.

What about the “area with substrate EMLYFQS” value of the same variant?
The value was 0.0562.

What about the “area with substrate EPLYFQS” value of the same variant?
Its value is 0.0577.

And the “area with substrate EQLYFQS” value?
Its value is 0.0633.

And the “area with substrate ESLYFQS” value?
The value was 0.055.

What about the “area with substrate ETLYFQS” value of the same variant?
Its value is 0.0718.

What about the “area with substrate EVLYFQS” value of the same variant?
The value was 0.0542.

And the “area with substrate EWLYFQS” value?
The value was 0.0553.

For C152K, which “area with substrate EALYFQS” value is on record?
Its value is 0.0591.

What about the “area with substrate ECLYFQS” value of the same variant?
Its value is 0.0585.

And the “area with substrate EELYFQS” value?
Its value is 0.0534.

What about the “area with substrate EILYFQS” value of the same variant?
The value was 0.0771.

And the “area with substrate EPLYFQS” value?
The value was 0.0544.

What about the “area with substrate EQLYFQS” value of the same variant?
The value was 0.0545.

And the “area with substrate ERLYFQS” value?
The value was 0.0604.

And the “area with substrate ESLYFQS” value?
The value was 0.0583.

What about the “area with substrate ETLYFQS” value of the same variant?
Its value is 0.0837.

And the “area with substrate EYLYFQS” value?
Its value is 0.0621.

Which “area with substrate EALYFQS” value does the source give for L33N here?
Its value is 0.0888.

What about the “area with substrate ECLYFQS” value of the same variant?
Its value is 0.0987.

What about the “area with substrate EDLYFQS” value of the same variant?
The value was 0.112.

What about the “area with substrate EELYFQS” value of the same variant?
The value was 0.104.

And the “area with substrate EFLYFQS” value?
The value was 0.0998.

And the “area with substrate EGLYFQS” value?
Its value is 0.0848.

What about the “area with substrate EHLYFQS” value of the same variant?
Its value is 0.133.

And the “area with substrate EKLYFQS” value?
The value was 0.124.

What about the “area with substrate ELLYFQS” value of the same variant?
Its value is 0.0933.

What about the “area with substrate EMLYFQS” value of the same variant?
Its value is 0.13.

What about the “area with substrate EPLYFQS” value of the same variant?
The value was 0.0934.

And the “area with substrate EQLYFQS” value?
Its value is 0.113.

And the “area with substrate ERLYFQS” value?
Its value is 0.0945.

What about the “area with substrate ESLYFQS” value of the same variant?
Its value is 0.0994.

And the “area with substrate ETLYFQS” value?
The value was 0.135.

And the “area with substrate EVLYFQS” value?
The value was 0.102.

And the “area with substrate EWLYFQS” value?
Its value is 0.0882.

Which results are given for D27P?
area with substrate EALYFQS: 0.0574; area with substrate ECLYFQS: 0.0039; area with substrate EDLYFQS: 0.095; area with substrate EELYFQS: 0.11; area with substrate EFLYFQS: 0.0729; area with substrate EHLYFQS: 0.11; area with substrate EKLYFQS: 0.091; area with substrate ELLYFQS: 0.0926; area with substrate EMLYFQS: 0.0904; area with substrate EPLYFQS: 0.11; area with substrate EQLYFQS: 0.0831; area with substrate ERLYFQS: 0.0951; area with substrate ESLYFQS: 0.103; area with substrate EWLYFQS: 0.0821

Source: the supplement of paper PMC12217912
